IFI data for 26 compounds are collected here from ChEMBL document CHEMBL1157539, “Thousands of chemical starting points for antimalarial lead identification” (Nature, 2010).

The full ranking holds about 13,000 compounds; the median of “IFI” is about 4, and the highest 2% start at about 17. The list shows a part of the results.

The assay can be described thus: GSK_TCMDC: Inhibition Frequency Index (IFI). The number of non-kinase HTS assays where a compound showed > 50 % inhibition, expressed as a percentage of the number of such assays in which the compound was tested (-0 is zero). Format: functional.
With `CN1CCN(Cc2ccc(-c3ccc4c(Nc5ccc(F)cc5Cl)ccnc4c3)o2)CC1`, the IFI amounted to 3.57%.
Compound `CCCCCCc1c(C)nc2cc(OC)ccc2c1O` had an IFI of 0.75%.
As to `Cc1ccc(C)c(CC(=O)N2CCC(n3c(C)nc4ccc(F)cc43)CC2)c1`, the IFI was -0%.
Then `COc1ccccc1C1CCN(CCN2CCC(NC(=O)c3ccc(-c4ccc(C#N)cc4)cc3)CC2)CC1`, with 2.75%; and `CC(C)C[C@H](NC(=O)c1cc2cc(OCCN3CCNCC3)ccc2o1)C(=O)NC1CC[C@@H](C)N(C(=O)Nc2ccc(Cl)cc2)CC1=O` (stereo partly specified), with 3.94%; and `O=C(C=Cc1ccc(Cl)c(Cl)c1)NCCCCCN1CCC(CCNC(=O)c2ccc3c(c2)OCO3)CC1`, with 5.26%.
The compound `CC1(C)N=C(N)N=C(N)N1c1ccc(Cl)c(Cl)c1` came in with an IFI of 2.82%.
`O=C(NCCNc1ccnc(Nc2ccc(F)cc2)n1)Nc1ccccc1F` came in with an IFI of 3.08%.
`COc1cccc2c1CCN(CCN1CCC(NC(=O)c3ccc(-c4cccc(Cl)c4Cl)cc3)CC1)C2` gave an IFI of 7.63%.
On to `Brc1cccc(Nc2nccc(Nc3ccc(Oc4ccccc4)cc3)n2)c1`, for which the IFI was 2.22%.
As to `CN(C)C(=O)c1cc(CNCc2ccccc2)ccc1-c1cccc(CNCc2ccc(-c3ccccc3)cc2)c1`, the IFI amounted to 6.47%.
Then `CC(C)Oc1ccc2ccccc2c1CNCCCCCCNCc1c(OC(C)C)ccc2ccccc12`, with 18.5%; and `CS(=O)(=O)c1ccc(-c2cncc(Cl)n2)cc1`, with 0%; and `Cc1[nH]c(C)c(-c2cc3ccccc3o2)c(=O)c1Cl`, with 1.83%.
In the case of `COc1cc(Cc2cnc(N)nc2N)ccc1Oc1ccc(N)cc1`, the IFI came to 2.97%.
`C/C=C/COc1ccc2ccccc2c1CNCCCCCCCCNCc1c(OC/C=C/C)ccc2ccccc12` displayed an IFI of 16.6%.
`NC1CCN(CCNCc2cccc(-c3ccc(-c4nc5cc(C(F)(F)F)ccc5[nH]4)cc3)c2)C1` (stereo unspecified) displayed an IFI of 4.23%.
`Cc1nc2c(-n3cc(Cn4ccnc4)c4ccccc43)ncnc2n1-c1ccc(Cl)cc1Cl` yielded an IFI of 1.71%.
`Cc1ccc(-c2cc(C(=O)Nc3ccc(S(=O)(=O)N4CCCCC4)cc3)[nH]n2)c(O)c1` came in with an IFI of 0.99%.
In the case of `CC(=O)Nc1ccc(OCCCCCOc2ccc(NC(C)=O)cc2Cl)c(Cl)c1`, the IFI was -0%.
`CCN1CCN(C(=O)NC(C(=O)N2CCCC(COc3ccc(Cc4ccccc4)cc3)C2)c2cccs2)C(=O)C1=O` (stereo unspecified) registered an IFI of 1.46%.
`Cc1cccc2nc(-c3ccc(-c4ccc(CNCCCN5CCCC5=O)cc4)s3)[nH]c12` gave an IFI of 4.85%.
`COc1cccc(Nc2nc(NCCO)c3ccccc3n2)c1` had an IFI of 1.42%.
As for `CCCCn1c(SC(C)C)nc2c(c1=O)C1(CCCCC1)Cc1ccccc1-2`, the IFI is -0%.
`CCCCCCN1CCCN(Cc2ccc(C(=O)Nc3ccc(C)c(F)c3)cc2)CC1` registered an IFI of 10.3%.
`COc1ccc(NC(=O)Nc2cccc(-c3cccc(-c4nc5cc(F)ccc5[nH]4)c3)c2)cc1`: the IFI was 5.1%.
